Consider two substances from PMC7181608.

Amino acid sequences for entries named in this document (tags omitted).
UniProt P12956: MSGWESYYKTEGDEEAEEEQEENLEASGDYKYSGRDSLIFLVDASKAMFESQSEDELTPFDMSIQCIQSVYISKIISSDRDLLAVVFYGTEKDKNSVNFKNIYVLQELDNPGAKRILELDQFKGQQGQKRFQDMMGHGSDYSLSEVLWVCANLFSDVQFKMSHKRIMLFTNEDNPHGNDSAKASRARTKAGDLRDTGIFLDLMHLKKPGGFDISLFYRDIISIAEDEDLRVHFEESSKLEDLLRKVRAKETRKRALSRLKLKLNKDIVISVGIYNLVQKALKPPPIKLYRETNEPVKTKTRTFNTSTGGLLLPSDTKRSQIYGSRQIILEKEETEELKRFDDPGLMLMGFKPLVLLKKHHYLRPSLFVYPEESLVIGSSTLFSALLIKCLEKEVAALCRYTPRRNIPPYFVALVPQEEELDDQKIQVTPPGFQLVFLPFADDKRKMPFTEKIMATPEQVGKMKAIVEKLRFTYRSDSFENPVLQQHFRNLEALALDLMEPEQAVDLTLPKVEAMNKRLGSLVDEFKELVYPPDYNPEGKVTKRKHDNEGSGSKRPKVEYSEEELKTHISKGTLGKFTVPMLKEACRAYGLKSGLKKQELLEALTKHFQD
UniProt P13010: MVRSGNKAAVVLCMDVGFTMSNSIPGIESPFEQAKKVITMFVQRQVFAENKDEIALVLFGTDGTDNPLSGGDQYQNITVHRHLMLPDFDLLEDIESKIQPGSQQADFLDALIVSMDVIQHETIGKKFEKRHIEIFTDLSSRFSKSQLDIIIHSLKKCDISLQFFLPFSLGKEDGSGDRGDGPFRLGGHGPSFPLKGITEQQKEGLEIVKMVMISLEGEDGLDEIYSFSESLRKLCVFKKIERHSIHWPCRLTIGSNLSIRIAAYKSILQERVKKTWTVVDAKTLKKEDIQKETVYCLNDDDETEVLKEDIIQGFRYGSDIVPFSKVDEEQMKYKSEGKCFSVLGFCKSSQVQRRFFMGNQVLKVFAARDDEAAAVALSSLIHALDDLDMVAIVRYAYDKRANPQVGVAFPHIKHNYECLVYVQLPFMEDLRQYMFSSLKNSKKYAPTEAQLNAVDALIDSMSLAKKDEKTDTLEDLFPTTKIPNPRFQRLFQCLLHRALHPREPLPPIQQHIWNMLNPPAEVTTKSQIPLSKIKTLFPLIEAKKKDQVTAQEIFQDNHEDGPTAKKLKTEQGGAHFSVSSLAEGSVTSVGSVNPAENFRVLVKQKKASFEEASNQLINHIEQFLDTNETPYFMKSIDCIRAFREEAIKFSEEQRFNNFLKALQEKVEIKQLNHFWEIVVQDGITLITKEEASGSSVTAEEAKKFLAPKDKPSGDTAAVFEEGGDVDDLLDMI

Assay [1] addresses T1, Forkhead box protein L2 (FOXL2), endogenous (human (endogenous in KGN)) (UniProt P58012).
T1 sequence: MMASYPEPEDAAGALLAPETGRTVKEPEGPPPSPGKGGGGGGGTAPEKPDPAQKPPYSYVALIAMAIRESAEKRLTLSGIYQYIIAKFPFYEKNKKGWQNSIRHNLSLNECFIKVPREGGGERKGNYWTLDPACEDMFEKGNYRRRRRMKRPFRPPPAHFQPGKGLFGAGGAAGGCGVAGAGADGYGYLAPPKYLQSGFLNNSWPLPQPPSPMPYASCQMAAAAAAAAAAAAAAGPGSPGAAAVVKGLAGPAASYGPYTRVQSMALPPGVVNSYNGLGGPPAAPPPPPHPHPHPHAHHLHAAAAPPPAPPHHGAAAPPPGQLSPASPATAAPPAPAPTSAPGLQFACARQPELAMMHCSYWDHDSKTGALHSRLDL
Kind of assay: co-IP; endogenous proteins in other types of cancer cells, with and without UV (Supplementary Fig. 7a-c).

For assay [2], the target named is T1, Forkhead box protein L2 (FOXL2), endogenous (human (endogenous in KGN)). Description: co-IP; KGN lysate with ethidium bromide (50 μg/ml) or DNase I (10 U) added; IP with anti-FOXL2, western blot. For orientation: A western blot detects proteins with antibodies after separation by electrophoresis.
For assay [3], the target named is T2, Myc-tagged FOXL2 K124Q (human) (UniProt P58012).
T2 sequence: T1 sequence with K124Q
Description: co-IP; KGN cells transfected with Myc-FOXL2 WT or lysine mutants, with and without UV; IP with anti-Myc, immunoblot, bands quantified.

The target of assay [4] is T3, Myc-tagged FOXL2 K124R (human) (UniProt P58012).
T3 sequence: T1 sequence with K124R
The description is as above.

Assay [5] has as its target T4, Myc-tagged full-length wild-type (WT) FOXL2 (human) (UniProt P58012).
T4 sequence: T1 sequence
Described as above.

Assay [6] has as its target T5, Myc-tagged FOXL2 I80T (human) (UniProt P58012).
T5 sequence: T1 sequence with I80T
Description: co-IP; 293T cells transfected with Myc-tagged FOXL2 forms (with Flag-XRCC5 or XRCC6 fragments where indicated); IP with anti-Myc, immunoblot.

Assay [7] has as its target T6, Myc-tagged FOXL2 I84S (human) (UniProt P58012).
T6 sequence: T1 sequence with I84S
Described as above.

Assay [8] deals with T7, Myc-tagged FOXL2 W204X (human) (UniProt P58012).
T7 sequence: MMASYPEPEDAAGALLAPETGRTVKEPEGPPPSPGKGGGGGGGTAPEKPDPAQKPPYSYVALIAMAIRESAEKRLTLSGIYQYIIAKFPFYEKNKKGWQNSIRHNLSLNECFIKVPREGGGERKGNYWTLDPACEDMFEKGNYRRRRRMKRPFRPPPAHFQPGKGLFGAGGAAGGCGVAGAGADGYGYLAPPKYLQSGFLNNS
The description is as above.

Substitutions are numbered along the chain they refer to. These are yes or no findings as the source states them, for the method shown. Binding seen in cells or lysates may run through a third protein. Some entries that bind do so weakly or less than the wild type. For some of these results: Tags and fused reporters may be left off the sequences shown.

Consider “XRCC6 (Ku70), endogenous (from UniProt P12956 1-609)”, for which the binding entry is given as “binds” in assay [1]; “binds” in assay [2]; “binds” in assay [3]; “binds weakly” in assay [4]; “binds” in assay [5]; “no binding” in assay [6]. In addition, the binding entry is reported as “no binding” in assay [7] and “binds” in assay [8].
In the case of “XRCC5 (Ku80), endogenous (from UniProt P13010 1-732)”, the binding entry in assay [1] is on record as “binds”; in assay [2], “binds”; in assay [3], “binds”; in assay [4] it was “binds weakly”; in assay [5], “binds”; in assay [6], “no binding”. Besides, the binding result in assay [7] is “no binding”; in assay [8] it was “binds”.
